Among the data in article PMC6879585 are binding values, retold here.

Protein sequences, listed by entry. Tags and fused reporters are not part of them. Lines headed by an entry give the natural chain unless they say otherwise; changes in a name come on top.
UniProt Q05655: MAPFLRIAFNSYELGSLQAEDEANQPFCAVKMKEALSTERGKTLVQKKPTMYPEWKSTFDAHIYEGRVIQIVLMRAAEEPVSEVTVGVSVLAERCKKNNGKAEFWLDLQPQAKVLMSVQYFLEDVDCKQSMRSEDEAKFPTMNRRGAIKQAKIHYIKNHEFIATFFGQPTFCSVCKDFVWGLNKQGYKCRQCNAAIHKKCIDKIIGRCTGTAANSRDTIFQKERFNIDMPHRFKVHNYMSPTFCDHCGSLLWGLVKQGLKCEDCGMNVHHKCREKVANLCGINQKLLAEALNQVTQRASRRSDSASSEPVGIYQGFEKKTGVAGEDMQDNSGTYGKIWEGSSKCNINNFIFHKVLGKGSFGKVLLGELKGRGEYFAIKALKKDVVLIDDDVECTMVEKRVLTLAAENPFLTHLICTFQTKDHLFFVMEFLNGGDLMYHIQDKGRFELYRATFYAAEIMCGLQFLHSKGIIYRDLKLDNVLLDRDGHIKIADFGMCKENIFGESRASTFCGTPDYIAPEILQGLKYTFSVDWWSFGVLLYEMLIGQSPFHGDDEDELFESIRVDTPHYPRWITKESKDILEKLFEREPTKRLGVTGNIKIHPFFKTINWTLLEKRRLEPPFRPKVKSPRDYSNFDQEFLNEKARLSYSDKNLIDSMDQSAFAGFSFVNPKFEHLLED
UniProt P52294: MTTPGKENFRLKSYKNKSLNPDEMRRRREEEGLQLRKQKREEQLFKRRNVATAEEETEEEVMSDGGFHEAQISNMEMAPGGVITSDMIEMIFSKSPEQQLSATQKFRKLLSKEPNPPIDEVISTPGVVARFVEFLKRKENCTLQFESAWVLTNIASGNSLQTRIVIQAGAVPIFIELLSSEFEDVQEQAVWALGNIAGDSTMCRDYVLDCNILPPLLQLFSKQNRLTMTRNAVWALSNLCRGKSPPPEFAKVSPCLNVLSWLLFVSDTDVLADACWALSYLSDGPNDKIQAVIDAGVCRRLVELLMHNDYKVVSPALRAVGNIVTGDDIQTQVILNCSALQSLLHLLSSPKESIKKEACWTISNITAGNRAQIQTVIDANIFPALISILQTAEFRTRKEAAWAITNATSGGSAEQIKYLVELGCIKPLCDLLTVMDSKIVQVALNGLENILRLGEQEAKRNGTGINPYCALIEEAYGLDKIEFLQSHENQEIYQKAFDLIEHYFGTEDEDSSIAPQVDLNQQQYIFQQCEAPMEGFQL
UniProt Q8N122: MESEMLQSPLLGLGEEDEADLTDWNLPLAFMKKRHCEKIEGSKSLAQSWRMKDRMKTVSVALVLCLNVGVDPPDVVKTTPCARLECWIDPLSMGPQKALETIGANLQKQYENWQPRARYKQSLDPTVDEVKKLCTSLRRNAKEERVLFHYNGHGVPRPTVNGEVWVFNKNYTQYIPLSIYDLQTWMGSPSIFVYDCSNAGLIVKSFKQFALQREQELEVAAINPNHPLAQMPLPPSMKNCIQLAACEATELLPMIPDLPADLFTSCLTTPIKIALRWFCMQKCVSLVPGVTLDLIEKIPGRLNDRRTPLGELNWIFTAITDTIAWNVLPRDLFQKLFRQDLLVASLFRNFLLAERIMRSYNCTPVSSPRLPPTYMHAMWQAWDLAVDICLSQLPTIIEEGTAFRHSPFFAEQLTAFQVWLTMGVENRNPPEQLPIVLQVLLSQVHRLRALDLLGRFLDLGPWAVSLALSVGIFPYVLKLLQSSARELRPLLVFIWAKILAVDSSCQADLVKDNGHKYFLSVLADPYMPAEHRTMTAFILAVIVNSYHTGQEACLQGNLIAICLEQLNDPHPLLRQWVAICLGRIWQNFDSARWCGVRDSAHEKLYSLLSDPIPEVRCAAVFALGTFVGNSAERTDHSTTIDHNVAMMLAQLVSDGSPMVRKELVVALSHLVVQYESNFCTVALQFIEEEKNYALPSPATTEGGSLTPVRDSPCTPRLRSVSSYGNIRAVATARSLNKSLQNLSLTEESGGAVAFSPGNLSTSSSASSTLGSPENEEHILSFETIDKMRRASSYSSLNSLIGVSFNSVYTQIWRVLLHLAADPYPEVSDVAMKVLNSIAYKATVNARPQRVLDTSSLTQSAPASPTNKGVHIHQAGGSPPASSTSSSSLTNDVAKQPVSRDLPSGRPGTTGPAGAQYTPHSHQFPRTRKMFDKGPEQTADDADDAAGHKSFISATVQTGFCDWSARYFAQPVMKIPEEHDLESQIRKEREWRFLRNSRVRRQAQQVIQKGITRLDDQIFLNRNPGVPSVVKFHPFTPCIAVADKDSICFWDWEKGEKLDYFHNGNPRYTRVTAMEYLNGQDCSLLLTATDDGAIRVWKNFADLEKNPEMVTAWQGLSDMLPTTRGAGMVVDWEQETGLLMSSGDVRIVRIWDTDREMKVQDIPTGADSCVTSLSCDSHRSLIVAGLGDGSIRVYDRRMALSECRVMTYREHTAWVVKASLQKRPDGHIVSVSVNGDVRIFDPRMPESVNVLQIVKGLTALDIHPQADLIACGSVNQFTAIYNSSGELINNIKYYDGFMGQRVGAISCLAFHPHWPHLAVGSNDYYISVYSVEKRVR
UniProt Q6R327: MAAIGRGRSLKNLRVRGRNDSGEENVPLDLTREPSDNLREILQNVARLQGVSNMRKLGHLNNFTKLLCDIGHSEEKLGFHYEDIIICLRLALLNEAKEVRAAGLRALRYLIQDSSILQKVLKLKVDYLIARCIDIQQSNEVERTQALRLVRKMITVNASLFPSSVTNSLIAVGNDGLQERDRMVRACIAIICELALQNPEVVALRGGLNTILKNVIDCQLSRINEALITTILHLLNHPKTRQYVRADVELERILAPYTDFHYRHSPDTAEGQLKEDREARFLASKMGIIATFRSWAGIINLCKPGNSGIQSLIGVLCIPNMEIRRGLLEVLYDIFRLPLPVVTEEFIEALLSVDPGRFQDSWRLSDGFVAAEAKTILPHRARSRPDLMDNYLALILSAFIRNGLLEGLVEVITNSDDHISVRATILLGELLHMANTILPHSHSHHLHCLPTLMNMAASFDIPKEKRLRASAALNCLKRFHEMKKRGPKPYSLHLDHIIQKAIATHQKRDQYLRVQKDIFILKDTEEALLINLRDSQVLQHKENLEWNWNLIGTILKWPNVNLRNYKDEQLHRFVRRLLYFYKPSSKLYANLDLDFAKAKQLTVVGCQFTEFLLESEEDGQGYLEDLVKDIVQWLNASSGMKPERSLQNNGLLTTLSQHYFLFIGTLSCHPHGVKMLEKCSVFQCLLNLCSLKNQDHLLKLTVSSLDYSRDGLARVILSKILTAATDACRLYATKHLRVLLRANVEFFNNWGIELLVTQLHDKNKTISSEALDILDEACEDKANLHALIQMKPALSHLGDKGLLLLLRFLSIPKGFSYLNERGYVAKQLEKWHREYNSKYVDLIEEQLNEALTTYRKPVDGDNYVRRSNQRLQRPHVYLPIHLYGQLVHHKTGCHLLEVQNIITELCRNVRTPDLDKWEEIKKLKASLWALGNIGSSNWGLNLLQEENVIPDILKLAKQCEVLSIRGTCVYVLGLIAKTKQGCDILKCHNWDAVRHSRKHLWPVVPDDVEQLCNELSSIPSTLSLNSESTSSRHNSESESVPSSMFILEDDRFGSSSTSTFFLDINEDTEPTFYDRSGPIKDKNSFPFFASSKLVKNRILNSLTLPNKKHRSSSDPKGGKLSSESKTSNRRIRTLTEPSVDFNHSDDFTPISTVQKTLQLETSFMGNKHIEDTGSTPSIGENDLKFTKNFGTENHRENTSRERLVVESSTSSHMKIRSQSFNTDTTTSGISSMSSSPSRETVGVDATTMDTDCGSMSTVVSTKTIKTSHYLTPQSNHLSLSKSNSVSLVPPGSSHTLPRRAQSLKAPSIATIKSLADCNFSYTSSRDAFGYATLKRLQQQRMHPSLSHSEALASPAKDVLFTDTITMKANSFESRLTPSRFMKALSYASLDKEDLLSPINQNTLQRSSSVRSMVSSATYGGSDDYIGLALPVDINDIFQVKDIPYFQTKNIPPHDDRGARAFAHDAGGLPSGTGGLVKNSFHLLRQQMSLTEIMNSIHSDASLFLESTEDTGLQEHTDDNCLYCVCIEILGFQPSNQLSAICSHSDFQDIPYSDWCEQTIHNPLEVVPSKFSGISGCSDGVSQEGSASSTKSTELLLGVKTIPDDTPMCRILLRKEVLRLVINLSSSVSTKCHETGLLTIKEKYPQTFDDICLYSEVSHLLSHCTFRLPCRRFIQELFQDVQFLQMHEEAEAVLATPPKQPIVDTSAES

These are yes or no findings as the source states them, for the method shown. For some assays here: In cells and extracts the contact can be indirect. Some binding calls cover weakened binding; strength is not graded here.

Assay [1] addresses PKCδ (WT) linked to a complementary fragment of Venus yellow fluorescence protein (human) (UniProt Q05655). Description: split reporter; protein fragment complementation assay: Venus YFP fragments VF1 and VF2 fused to the two proteins, co-transfected 1:1 in COS7; fluorescence (ex 512 nm, em 529 nm) per cell.
Assay [2] has as its target PKCδ F425I linked to a complementary fragment of Venus yellow fluorescence protein (human) (UniProt Q05655). Described as above.
For assay [3], the target named is V5-CFP-KPNA1 (UniProt P52294). Kind of assay: co-IP; anti-V5 antibody (5 μg, overnight, 4 °C) and Protein G Sepharose on HEK293T whole cell lysates (20 mM Tris pH 8.0, 0.3% CHAPS); washed with PBS 0.3% CHAPS; Western blot; for V5-CFP-KPNA1 cells without or with rapamycin 50 ng/ml, 30 min. On the technique in general: Immunoblotting shows a protein as a band on a membrane.

Assay [4] concerns the target V5-CFP-PKCδ F425I (human) (UniProt Q05655). The assay is described as above.
Another assay concerns the target V5-CFP-WT PKCδ (human) (UniProt Q05655). The assay is described as above.
Assay [5] deals with V5-CFP-KPNA1 (UniProt P52294). Description: co-IP; anti-V5 immunoprecipitation from nuclear lysates of HEK293T cells expressing V5-CFP-KPNA1, rapamycin 50 ng/ml for 0 or 30 min; control IgG; Western blot.
The target of assay [6] is raptor (endogenous, Supplementary Fig. S1D and S1E,F) (UniProt Q8N122). Kind of assay: co-elution in ion exchange chromatography fractions; endogenous proteins in ion exchange chromatography fractions previously shown to contain STAT1 and the mTOR-associated phosphatases; Supplementary Fig. S1D.
The target in assay [7] is rictor (endogenous, ion exchange fractions of Supplementary Fig. S1D) (UniProt Q6R327). Described as above.
The target in assay [8] is KPNA1 (WT) linked to a complementary fragment of Venus yellow fluorescence protein (UniProt P52294). Kind of assay: split reporter; protein fragment complementation assay: Venus YFP fragments VF1 and VF2 fused to the two proteins, co-transfected 1:1 in COS7; fluorescence (ex 512 nm, em 529 nm) per cell.

Take “raptor (WT) linked to a complementary fragment of Venus yellow fluorescence protein (from UniProt Q8N122 1-1335)”: the binding entry in assay [1] is given as “binds”; in assay [2] it was “no binding”.
Regarding “raptor (endogenous, HEK293T) (from UniProt Q8N122 1-1335)”, the binding entry with V5-CFP-KPNA1 [3] was “binds”; in assay [4], “no binding”; in the assay with V5-CFP-WT PKCδ (human), “binds”; with V5-CFP-KPNA1 [5], “binds”.
On to “PKCδ (endogenous, ion exchange fractions of Supplementary Fig. S1D) (from UniProt Q05655 1-676) (enzyme)”, for which the values for the binding result in assay [6] and in [7] were “binds” and “no binding”, respectively.
Regarding “PKCδ (WT) linked to a complementary fragment of Venus yellow fluorescence protein (from UniProt Q05655 1-676) (enzyme)”, the binding entry in assay [8] is “binds”.
“PKCδ (endogenous, HEK293T) (from UniProt Q05655 1-676) (enzyme)”: the binding entry with V5-CFP-KPNA1 [3] and with V5-CFP-KPNA1 [5] was “binds” each time.
